Source: paper PMC4739766 (eLife, 2015)

Key:
[1] = target: T1, human RhoGDI (2–204) (human, UniProt P52565 2-204); test: SPR; unprenylated RhoA:GDP:Mg2+ immobilised by amine coupling on CM5 chip; BIAcore T200, 22°C; 10 mM HEPES, 50 mM NaCl, 0.005% Surfactant P20, pH 7.0 (1 mM MgCl2 and 100 µM GDP for RhoGDI); steady-state analysis, one binding site model; details: both partners purified
T1 construct: 15N- or 13C,15N-labelled in some NMR samples; source: E. coli SoluBL21 (DE3), purified (Ni-NTA, gel filtration Superdex 75 and/or ion exchange)
T1 sequence (looked up): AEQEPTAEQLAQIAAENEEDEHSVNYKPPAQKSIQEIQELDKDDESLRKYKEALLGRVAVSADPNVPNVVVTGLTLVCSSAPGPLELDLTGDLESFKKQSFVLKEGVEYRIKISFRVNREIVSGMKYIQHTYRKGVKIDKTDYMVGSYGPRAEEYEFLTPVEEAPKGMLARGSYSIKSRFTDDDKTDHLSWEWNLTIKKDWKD

[2] = target: T2, RhoGDI complexed with p75^NTR DD (molar ratio 1:2) (human, UniProt P52565 2-204; P08138 330-427); test: as above; details: both partners purified
T2 construct: RhoGDI, human, residues 2-204; p75 neurotrophin receptor, human, death domain, residues 330-427; 1:2 is the ratio in which the two proteins were mixed, not a measured stoichiometry; also called RhoGDI precomplexed with purified p75^NTR DD; source: E. coli SoluBL21 (DE3), purified proteins mixed
T2 sequence (looked up) 1: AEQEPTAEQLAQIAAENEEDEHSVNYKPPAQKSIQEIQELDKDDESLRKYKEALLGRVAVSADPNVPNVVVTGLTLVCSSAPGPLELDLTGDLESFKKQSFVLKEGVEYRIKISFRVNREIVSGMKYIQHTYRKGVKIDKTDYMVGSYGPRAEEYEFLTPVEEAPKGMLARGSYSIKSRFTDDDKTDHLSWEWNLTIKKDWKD
T2 sequence (looked up) 2: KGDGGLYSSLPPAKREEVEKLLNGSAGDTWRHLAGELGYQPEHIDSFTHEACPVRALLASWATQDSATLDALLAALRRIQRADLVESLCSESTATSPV

Kd [1]: 0.14 ± 0.01 µM
Kd [2]: 2.2 ± 0.11 µM
B1: human RhoA ([…]), unprenylated RhoA:GDP:Mg2+ (natural protein)
chain: not shown
notes: RhoA, human, […]; source: E. coli SoluBL21 (DE3), purified (Ni-NTA, gel filtration Superdex 75 and/or ion exchange)
